In PubChem BioAssay AID463173 (ICCB-Longwood Screening Facility, Harvard Medical School, 2010):
In all, about 52,000 compounds went through this assay and about 1,700 (3.3%) were called active. No stated cut-off is given here; in the data, active means survival mostly below about 52% (no sharp cut-off); inactive means mostly above about 56%. The list shows a part of the results.

These compounds were tested on Wild type (assay: S. aureus survival, RN4220 and DeltatarO strains – OD600, teichoic acid synthesis inhibitors, primary screen (AID 463173)). Settings: S. aureus RN4220 wild type/DeltatarO growth, OD600, 18 h, active compounds read low, screened at 18.75 µg/mL (by protocol).
With `CCOc1ccc2nc(SCC(=O)Nc3ccc(F)cc3)nc(-c3ccccc3)c2c1` the survival was inactive: 122%.
In the case of `O=c1ccc2cc(S(=O)(=O)Nc3ccc(F)c(Cl)c3)ccc2[nH]1`, the survival is reported as inactive: 85%.
With `Cn1nnc2c(NCc3ccc(Cl)cc3)ncnc21` the survival was inactive: 88%.
In the case of `COc1cccc(CNC(=O)Cc2c(C)c3c(cc(C)c4c(C)c(C)oc43)oc2=O)c1`, the survival is reported as inactive: 89%.
With `O=S(=O)(c1ccc(Cl)cc1)c1nc(-c2cccs2)oc1SCc1ccc(F)cc1` the survival was inactive: 68%.
With `Cc1ccc2oc(-c3ccc(NC(=O)C(F)(F)F)cc3)nc2c1` the survival was inactive: 113%.
In the case of `COc1ccc(OC)c(NC(=O)C2Cc3ccccc3CN2S(=O)(=O)c2ccc(F)cc2)c1` (configuration not stated), the survival is reported as inactive: 88%.
`CC1=C(C(=O)Nc2ccc(Cl)cc2)C(c2ccccc2F)n2nc(SCc3cccc(Cl)c3)nc2N1` (configuration not stated) was tested, and the survival was inactive: 83%.
In the case of `Cc1ccc(-n2ncc3c(NC(C)c4ccccc4)ncnc32)cc1` (configuration not stated), the survival is reported as inactive: 73%.
In the case of `COc1ccc(NC(=O)Cn2c(=O)n(Cc3ccccc3OC)c(=O)c3cccnc32)cc1Cl`, the survival is reported as inactive: 93%.
In the case of `COc1ccc(-n2nc3cc(C)c(NC(=O)c4ccc5c(c4)OCO5)cc3n2)cc1`, the survival is reported as inactive: 107%.
`CCc1ccc(CNC(=O)c2cc3n(n2)CCCN(Cc2ccccc2)C3=O)cc1` was tested, and the survival was inactive: 134%.
For `Cc1ccc(Cn2c(=O)n(CCc3ccc(Cl)cc3)c(=O)c3ccccc32)cc1`, the survival was inactive: 39%.
For `Cc1ccc(Nc2c(-c3ccc(C)s3)nc3ccccn23)cc1`, the survival was inactive: 31%.
`Cc1cc(Cl)ccc1NC(=O)Cc1ccc(NC(=O)N2CCCCc3ccccc32)cc1` was tested, and the survival was inactive: 68%.
With `COc1ccc(C)cc1NC(=O)C1CCN(S(=O)(=O)c2cc(Br)cc3c2N(C(C)=O)CC3)CC1` the survival was inactive: 97%.
`CCOC(=O)N1CC=C2C(C#N)=C(N)C(C#N)(C#N)C(c3ccc(CC)cc3)C2C1` (configuration not stated) was tested, and the survival was inactive: 98%.
For `O=C(Cn1c(-c2ccccc2)noc1=O)Nc1cccc(Cl)c1Cl`, the survival was inactive: 105%.
With `O=C(CSc1nnc(-c2ccc(Cl)cc2)o1)c1ccc([N+](=O)[O-])cc1` the survival was inactive: 60%.
In the case of `CCN1C(C)=C(C)S/C1=C1\SC(=S)N(C2CCCCC2)C1=O`, the survival is reported as inactive: 110%.
With `CCc1ccc(C(=O)c2cn(CC(=O)Nc3cccc(OC)c3)c3cc4c(cc3c2=O)OCO4)cc1` the survival was inactive: 91%.
For `CCn1c(SCc2c(F)cccc2Cl)nc(=O)c2c(C(=O)OC)cc(C3CC3)nc21`, the survival was inactive: 66%.
For `O=C(c1ccccc1Br)N(Cc1ccco1)Cc1ccco1`, the survival was inactive: 82%.
With `CCc1nn2c(=O)cc(COC(=O)c3ccccc3)nc2s1` the survival was inactive: 91%.
For `Cc1ccc(-c2nnc(NC3CCCC3)s2)cc1`, the survival was inactive: 126%.
`COc1ccc(C)c2sc(N3CCN(C(=O)c4cccc(F)c4)CC3)nc12` was tested, and the survival was inactive: 133%.
`CCOc1ccccc1NC(=O)N(Cc1ccc(C)o1)C1CCN(C(C)=O)CC1` was tested, and the survival was inactive: 75%.
`Cc1ccc(-c2cc3ncc4c(n3n2)-c2cc(F)ccc2OC4)cc1` was tested, and the survival was inactive: 132%.
In the case of `CCOC(=O)CNC(=O)N1CCCN(S(=O)(=O)c2ccc3c(ccn3CC)c2)CC1`, the survival is reported as inactive: 68%.
With `COc1ccc(C)cc1NC(=O)C1CCCN(c2ncnc3onc(C)c23)C1` (configuration not stated) the survival was inactive: 81%.
In the case of `Nc1nnc(CCS(=O)(=O)c2cc(Cl)ccc2Cl)s1`, the survival is reported as inactive: 111%.
`CCOc1ccccc1NC(=O)CN(C)S(=O)(=O)c1ccc(C(=O)N2CCOCC2)s1` was tested, and the survival was inactive: 72%.
For `O=c1c(=O)n(-c2ccc(F)c(F)c2)ccn1Cc1ccc(F)cc1Cl`, the survival was inactive: 83%.
`CCOC(=O)C1(CC)C(=O)OC(C(=O)NC2CCCCC2)C1C` (configuration not stated) was tested, and the survival was inactive: 112%.
In the case of `CCOc1ccc(NC(=O)N2CCN(c3nnc(C)c4c(C)n(-c5ccccc5)nc34)CC2)cc1`, the survival is reported as inactive: 131%.
With `Cc1cccc(NC(=O)CCn2cnc3ccccc3c2=O)c1` the survival was inactive: 133%.
With `CCOC(=O)C1=C(CS(=O)(=O)c2ccc(F)c(C)c2)NC(=O)NC1c1ccccc1OC` (configuration not stated) the survival was inactive: 84%.
In the case of `CCCc1nnc(NC(=O)c2nc(SCC)ncc2Cl)s1`, the survival is reported as inactive: 84%.
For `CCc1nn(CC(=O)N2CCCCC2)c(=O)c2cc3occc3n12`, the survival was inactive: 73%.
`CCOC(=O)c1noc2ncn(CC(=O)Nc3cccc(C(F)(F)F)c3)c(=O)c12` was tested, and the survival was inactive: 72%.
With `Cc1cc(Nc2cccc(Cl)c2)nc2ccc(NC(=O)c3cncc(Br)c3)cc12` the survival was inactive: 73%.
In the case of `O=C(CC1N=C2c3ccccc3N=C(SCc3ccccc3Cl)N2C1=O)NCCc1ccccc1` (configuration not stated), the survival is reported as inactive: 74%.
In the case of `CCCCn1c(=O)n(-c2cc(OC)ccc2OC)c(=O)c2c3c(sc21)CN(C(C)=O)CC3`, the survival is reported as inactive: 114%.
In the case of `COc1ccc(-n2nc(C(=O)Nc3cc(C)ccn3)c3c4ccccc4n(C)c3c2=O)cc1`, the survival is reported as inactive: 75%.
For `Cc1oc(-c2ccccc2Cl)nc1CS(=O)(=O)CC(=O)NCc1ccc(F)cc1`, the survival was inactive: 83%.
In the case of `CCC(C(=O)NCc1ccccc1OC)n1nc(C)n2c(cc3occc32)c1=O` (configuration not stated), the survival is reported as inactive: 69%.
In the case of `Cc1ccc2c(=O)cc(C(=O)Nc3sc4c(c3C(=O)NCC3CCCO3)CCC4)oc2c1` (configuration not stated), the survival is reported as inactive: 84%.
With `COc1ccc(C(=O)Nc2ccc(N(C)Cc3ccccc3)c(C(=O)O)c2)cc1` the survival was inactive: 73%.
`CCOC(=O)Cn1c(=O)n(CC2CCCO2)c2nc(-c3ccccc3)nc(C(N)=O)c21` (configuration not stated) was tested, and the survival was inactive: 56%.
With `Cc1cc(C)cc(NC(=O)N2CCC(CN3CCOCC3)CC2)c1` the survival was inactive: 89%.
`CC(C)NC(=O)N1[C@H](c2cccs2)[C@@H](C)C(=O)[C@@H](C)[C@@H]1c1cccs1` was tested, and the survival was inactive: 77%.
For `O=C(CN1CCCN(Cc2ccccc2F)S1(=O)=O)Nc1ccc(F)c(Cl)c1`, the survival was inactive: 74%.
With `CCOC(=O)C1=C(CN2CCN(c3ccccc3OC)CC2)NC(=O)NC1c1ccccc1` (configuration not stated) the survival was inactive: 75%.
`Cc1ccc(CNCc2ccccc2Cl)s1` was tested, and the survival was inactive: 66%.
With `O=C(CNCC1CCCCC1)Nc1cccc(F)c1` the survival was inactive: 122%.
In the case of `COc1ccc(-c2nnc(SCC(=O)NCCC(C)C)nc2-c2ccc(OC)c(OC)c2)cc1OC`, the survival is reported as inactive: 71%.
`CCCCNC(=O)c1ccc2c(=O)n(Cc3ccc(OC)cc3)c(=O)[nH]c2c1` was tested, and the survival was inactive: 80%.
